# Measurements from the supplement of paper PMC3334620.
# Whole data set: some 33,000 sequences, median “E-score (-0.5 to 0.5)” near -0.041, cut for the highest 2% near 0.37. The list shows a part of the results.
# Target: T1, Ecm22 (UniProt Q05958)
# T1 sequence: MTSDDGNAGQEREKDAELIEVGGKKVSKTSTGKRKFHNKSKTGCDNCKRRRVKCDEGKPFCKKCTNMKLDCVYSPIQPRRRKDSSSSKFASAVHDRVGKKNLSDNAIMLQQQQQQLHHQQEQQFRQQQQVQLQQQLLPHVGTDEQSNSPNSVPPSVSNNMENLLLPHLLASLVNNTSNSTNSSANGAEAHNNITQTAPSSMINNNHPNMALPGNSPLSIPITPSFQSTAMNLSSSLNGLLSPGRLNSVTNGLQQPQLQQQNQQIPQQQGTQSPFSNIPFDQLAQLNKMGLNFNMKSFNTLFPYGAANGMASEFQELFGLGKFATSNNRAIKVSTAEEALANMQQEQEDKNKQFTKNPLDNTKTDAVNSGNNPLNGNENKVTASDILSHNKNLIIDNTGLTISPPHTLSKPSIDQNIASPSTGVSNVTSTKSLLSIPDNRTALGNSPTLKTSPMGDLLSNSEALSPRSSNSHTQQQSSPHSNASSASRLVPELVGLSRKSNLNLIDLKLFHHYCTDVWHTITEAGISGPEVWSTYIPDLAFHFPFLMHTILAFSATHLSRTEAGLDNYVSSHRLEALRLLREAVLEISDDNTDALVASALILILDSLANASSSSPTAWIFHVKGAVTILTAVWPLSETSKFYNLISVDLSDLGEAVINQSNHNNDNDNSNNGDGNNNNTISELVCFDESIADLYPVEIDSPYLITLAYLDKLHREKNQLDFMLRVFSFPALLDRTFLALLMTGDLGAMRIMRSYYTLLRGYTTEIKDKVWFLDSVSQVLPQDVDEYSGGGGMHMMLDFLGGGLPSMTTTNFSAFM
# Assay: PBM E-score (8-mer binding enrichment) (E-score (-0.5 to 0.5)); higher = stronger / more preferred TF binding; most listed sequences are background and not binding sites
# Details: protein concentration: 200 nM; construct: GST-full length
# Procedure: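 Universal 'all 10-mer' protein binding microarrays (Agilent AMADID 015681) probed with GST-tagged S. cerevisiae TFs (full-length or DBD) made by in vitro transcription/translation (PURExpress), about 100-200 nM. Bound TF was detected with fluorescent anti-GST. Each ungapped 8-mer (which stands for itself and its reverse complement) is scored by the PBM enrichment score (E-score), a modified Wilcoxon-Mann-Whitney statistic from -0.5 to +0.5, computed with the Universal PBM Analysis Suite. Scale: above 0.35 generally sequence-specific binding.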
row,Sequence,PBM E-score
1,TTCACGAA,0.104
2,ATGGCTTA,-0.0613
3,ACCTATCG,0.131
4,CCAATATA,-0.197
5,CATTCCGG,-0.248
6,CAGGCCCC,-0.236
7,GCCATTAC,0.0127
8,GCTATAGC,-0.117
9,AAGCTAGG,-0.253
10,CCCCAGTC,-0.0807
11,CAGCAATA,-0.101
12,CCCATGCA,-0.235
13,TCTATAAA,0.166
14,CATCTTAC,-0.13
15,ACAACTAT,-0.0516
16,AGCATAGG,-0.204
17,CGGATATC,0.181
18,ATAGTCGA,0.127
19,ACACTAGA,0.0273
20,ACGATGGA,0.335
21,AAGTAGGC,-0.0192
22,AGATGCCG,-0.0311
23,AGGGGATG,-0.258
24,ATTGATGA,0.0159
25,CGGCCCAA,0.165

row,Sequence,PBM E-score
1,CGGAACCA,-0.0635
2,GACTAGCC,-0.1
3,TTAGTAAA,-0.0125
4,ACCGCGAG,0.109
5,CTGTCCAC,-0.197
6,CCACGAGG,0.00398
7,AAATATAA,0.0754
8,ACTACAGC,-0.115
9,CCGGGCGA,-0.111
10,AGCGTCGC,0.251
11,ATGACACG,0.0709
12,AAACCGAG,0.252
13,AAGCAGGG,-0.121
14,GCATAATA,0.224
15,AGGACGGA,-0.0124
16,GGTGGGGA,-0.0897
17,AAACTGTA,0.154
18,ACAATTTG,-0.0227
19,AGTGTAAT,-0.0548
20,AAACGGCG,0.391
21,CACTAAAC,0.173
22,AGCGAGGA,0.265
23,CATACGGA,0.362
24,CATGAAAG,0.0691
25,CCGGGCGC,-0.265

row,Sequence,PBM E-score
1,AGGGCAAA,-0.0896
2,GCGCAAAC,0.11
3,GCTGCAAC,-0.0658
4,ATGTGTTC,-0.187
5,GCCAGCAC,-0.29
6,TCGACGAA,0.0659
7,CGCACCCG,0.23
8,TCCGGAAA,0.00935
9,GTTAGGAA,0.0589
10,CACATGAG,-0.269
11,ATGCCCGC,0.0331
12,CGAGCGCA,0.195
13,CAACTACC,-0.0922
14,ACTTAAAC,0.175
15,TAGACGCA,0.0239
16,ATATTTGC,0.0527
17,AGCAGATC,-0.0426
18,ATCGCAGG,-0.119
19,GAGCGTGC,0.151
20,CGGGCGAG,0.0404
21,ATCGCCTG,-0.219
22,AAATAACG,0.171
23,GCAGAGGC,-0.2
24,AGACGCAA,-0.201
25,GGGCAGAA,-0.0488

row,Sequence,PBM E-score
1,GGATGTAA,0.037
2,ATTGAGAC,-0.252
3,CACTTTAG,-0.165
4,GGATTCTA,-0.0442
5,ATCTGTTC,-0.0862
6,CTCGTAGC,0.449
7,GGCTCAAC,-0.155
8,CGTCTTAC,0.0844
9,CCCTTACG,0.134
10,CCGAAATC,0.0336
11,CATATCTA,0.0239
12,TGTGCAAA,0.0842
13,AGCGGGTA,0.107
14,AACACGCA,-0.133
15,CGTCTCCC,0.0394
16,GCATGCGC,-0.108
17,AGACTTGA,0.0107
18,AGTACAAT,0.0372
19,CATGCCCC,-0.167
20,TGTTGGAA,-0.112
21,CAGAAAGC,-0.0509
22,AAGTCCGT,0.00771
23,ACGTCGAA,0.195
24,GGTTTAAA,-0.119
25,GTGCACAA,0.0231

row,Sequence,PBM E-score
1,ATTGTCTG,0.0507
2,AGTACCGC,0.148
3,ATGGTCGG,0.17
4,AGGCATAA,-0.16
5,CTGCACTA,-0.203
6,CAATATAG,-0.0536
7,CTGCTAGC,-0.316
8,CTGAATTA,-0.1
9,AAATTACT,-0.0113
10,AGCGCAAT,-0.00222
11,ACTAGGAC,-0.332
12,AACTCTGA,0.00273
13,AGATCTTG,-0.146
14,AACCAGAA,0.00935
15,GAAAGTGA,-0.193
16,CCGACCAC,0.0939
17,TTAGCGAA,0.289
18,CATTGAAG,-0.272
19,CGGCTCGC,0.24
20,CAGCAAAC,0.0897
21,CCCTACTA,-0.225
22,GATATGTA,-0.0264
23,CGATACGA,0.454
24,ACTTTTAT,-0.217
25,TAGCGTGA,-0.0134

row,Sequence,PBM E-score
1,TGGGTACA,-0.127
2,AATAAGAT,-0.0294
3,GGGTAATA,0.0371
4,ATCATTTG,-0.0915
5,CCCCTACC,-0.121
6,ACAAAAAG,0.14
7,GAAGTAGA,0.0842
8,ACAAGCAT,-0.148
9,ATGCTGAC,-0.0984
10,TCACTGCA,-0.0663
11,TAAACGGA,0.433
12,CGATGCTC,0.106
13,AGCCACAG,-0.205
14,CGTTATGC,0.00819
15,CTTACTGA,0.0265
16,CCCGATAG,-0.0167
17,ATCTACAC,0.0981
18,CGGCCTAC,-0.0412
19,ACTTTGTA,-0.115
20,CAATTCCA,-0.195
21,CTCTCATA,0.00899
22,GTTCGGTA,0.211
23,TGGCCGAA,-0.102
24,AACGGATG,0.241
25,CGTCTACA,-0.0865

row,Sequence,PBM E-score
1,GTTACATA,-0.0158
2,ACTTTGTG,0.118
3,CGCCACGA,0.0548
4,ACCAAATA,0.00701
5,ACGCGGGA,0.062
6,GCCTGCAC,-0.261
7,AGTCGCTC,0.177
8,CAGCATTC,-0.13
9,ATCTGAAC,-0.0158
10,ACTTCTGG,-0.309
11,CGATGCTA,0.0845
12,CATGACAC,-0.0855
13,CCAACATA,0.0406
14,CAAGTCTG,-0.194
15,CAGGGTGA,-0.192
16,CGTGCGCA,-0.0738
17,CCCTAAGC,-0.268
18,ATCGTCCC,-0.0583
19,GACCGAGA,0.206
20,AACCTCGC,0.0711
21,CCCTCCAG,-0.206
22,AAGCGTCG,0.155
